# Whole data set: some 33,000 sequences, median “E-score (-0.5 to 0.5)” near -0.016, cut for the highest 2% near 0.31. The list shows a part of the results.
# Target: Cst6 (UniProt P40535)
# Test: PBM E-score (8-mer binding enrichment) (E-score (-0.5 to 0.5)); higher = stronger / more preferred TF binding; most listed sequences are background and not binding sites
# Conditions: protein concentration: 200 nM; construct: GST-DNA-binding domain
# Procedure, shortened: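 Yeast transcription factors carrying a GST tag, as full-length proteins or DNA-binding domains, were produced by PURExpress in vitro transcription/translation. About 100-200 nM protein was applied to universal all-10-mer Agilent arrays, double-stranded by primer extension on fresh or once-stripped slides. Bound protein was detected with fluorescent anti-GST, and scans were normalised with masliner. The Universal PBM Analysis Suite gave each ungapped eight-base word, pooled with its reverse complement, an E-score, a modified Wilcoxon-Mann-Whitney statistic.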
row,Sequence,PBM E-score
1,AAACGATG,0.194
2,TAGCTGCA,-0.201
3,ATATGGGC,-0.00349
4,TACACCGA,-0.18
5,ATATGCCA,0.118
6,AACCCGGT,-0.276
7,GAAAAGGC,-0.00087
8,AACACATA,0.251
9,GTGCCTGA,-0.208
10,TCAACAAA,0.168
11,ACGCGCAC,0.0413
12,GAAGAGCA,-0.0791
13,CAAGAGCA,-0.183
14,ATCCACCA,-0.011
15,CCACGCAA,0.043
16,CTTGCTTA,-0.166
17,GAAGCTCA,-0.121
18,CGCCTCCC,-0.0931
19,AGGCAGCC,-0.155
20,AAAACGGG,0.147
21,AATTGGGG,-0.155
22,GCTCAGAC,-0.091

row,Sequence,PBM E-score
1,AACCCGTT,-0.124
2,ACTCGAGT,0.135
3,CACCCAGC,-0.131
4,AGAATGAA,0.207
5,TAGTTGGA,-0.0265
6,TCGGCTAA,-0.0455
7,AGACGGTA,-0.115
8,CCAGTTAC,-0.132
9,ATCCCAGG,-0.234
10,CCTAAAAA,0.12
11,TGGCAAAA,0.212
12,ACAATTAT,0.289
13,ATTTGTGG,0.0944
14,ACCAGACT,-0.193
15,ACGAAGTG,0.116
16,CTTAAATC,0.123
17,TCAAGTAA,0.164
18,GCGTTCAA,0.0369
19,ATAAGCCG,-0.0888
20,CTCGTTCA,0.022
21,CCCGTCGG,-0.0747
22,GTTCACTA,-0.0774

row,Sequence,PBM E-score
1,CAATTGCG,0.228
2,AATGTTCC,-0.021
3,AGGTCATC,0.231
4,GCCCCAAC,-0.0637
5,GAAGAGCC,0.0432
6,AGTCCGTA,-0.202
7,CCCCTATC,-0.333
8,ACCGCACG,0.0528
9,ACTCGCAC,-0.239
10,ATATAGTG,0.197
11,ACATAGCG,-0.00759
12,CTTTGCAC,0.00533
13,CAGGAGAC,-0.112
14,GCATCCTA,-0.0937
15,ACAGCCTA,0.0738
16,ATCAACTG,0.0153
17,AAGAGGTC,-0.123
18,GCCGTTAA,0.103
19,CCGCTGTA,-0.119
20,CGCCCACG,-0.0894
21,CAATCGCA,0.156
22,ACGACTCA,-0.133

row,Sequence,PBM E-score
1,GTCACTTA,0.331
2,ATGGGCCG,-0.222
3,TTAATTAA,0.0995
4,GACGCATC,0.0635
5,CGCCTAGA,-0.132
6,CATAGGCA,-0.0341
7,GGGAAGTA,-0.0337
8,TCCCCGAA,-0.169
9,GGTCCTAA,-0.0909
10,ATGGTGTC,0.116
11,ACGATTCC,-0.0152
12,CAATGGGA,-0.063
13,ATGGTATC,-0.0172
14,GTTATTGA,0.145
15,ACCCTGAC,-0.171
16,ATTCGTCA,0.423
17,GGATCTGA,-0.164
18,AGTATCTA,0.167
19,CCTTAGGC,-0.238
20,AGTGTGCG,-0.191
